In all, about 45,000 compounds went through this assay and about 65 (0.1%) were called active. Calls come from the whole dose curve; as a rule, active = well fitted activation curve with a large enough effect; inconclusive = small, poorly fitted or top-dose-only effect; inactive = no such curve, though single readings can be large or run the other way. This is one part of the list.
The molecules below were run against Galactocerebrosidase (Homo sapiens) (UniProt P54803) (assay: A Novel Cell-Based Assay to Identify Small Molecules for B -Galactocerebrosidase). Settings: 145M-Twi-hGALC-G270D cells (Twitcher mouse brain line with human GALC G270D), HMU-beta-Gal fluorescence, 48 h; series mostly up to 57.5 µM; activation: at the top concentration.
Sequence of UniProt P54803 (P54803 whole entry, looked up): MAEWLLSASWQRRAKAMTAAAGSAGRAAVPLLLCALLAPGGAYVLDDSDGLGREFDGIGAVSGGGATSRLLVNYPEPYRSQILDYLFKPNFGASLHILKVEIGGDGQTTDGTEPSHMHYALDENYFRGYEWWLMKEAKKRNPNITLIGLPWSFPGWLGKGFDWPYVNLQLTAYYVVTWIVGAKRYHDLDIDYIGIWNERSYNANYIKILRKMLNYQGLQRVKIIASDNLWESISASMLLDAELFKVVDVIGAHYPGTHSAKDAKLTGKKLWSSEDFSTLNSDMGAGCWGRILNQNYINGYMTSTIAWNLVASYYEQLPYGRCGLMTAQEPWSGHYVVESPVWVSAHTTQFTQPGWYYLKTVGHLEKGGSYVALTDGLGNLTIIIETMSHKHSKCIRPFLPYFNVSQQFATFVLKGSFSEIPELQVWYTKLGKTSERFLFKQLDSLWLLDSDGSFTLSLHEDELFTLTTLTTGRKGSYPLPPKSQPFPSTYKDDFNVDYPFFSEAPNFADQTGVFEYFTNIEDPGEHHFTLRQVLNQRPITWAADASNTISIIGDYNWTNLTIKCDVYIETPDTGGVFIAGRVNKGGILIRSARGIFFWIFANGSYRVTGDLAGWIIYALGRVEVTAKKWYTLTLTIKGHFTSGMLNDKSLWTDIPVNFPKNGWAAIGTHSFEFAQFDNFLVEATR
Outline: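 Fluorogenic HMU-b-Gal hydrolysis (0.1 mM final, pH 5.2 citrate-phosphate with 1 mg/mL sodium taurocholate; carbonate stop buffer) measures mutant GALC activity after compound treatment of live 145M-Twi Twitcher brain cells stably carrying human GALC-G270D, with wild-type GALC line alongside; activation sought.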
Note: nearly all actives have a fitted effect of over 65% in size.
Potency is the fitted concentration of half-maximal effect.
Throughout, for activation: 0% is about no effect.

| SMILES | activation | Potency |
| --- | --- | --- |
| COC(=O)c1ccc(NC(=O)c2cc(=O)c3ccc(C)cc3o2)cc1 | inactive: 3.06% | – |
| COc1cc(/C=C(\C#N)C(=O)Nc2ccc(C)cc2)ccc1OCc1cc(=O)n2nc(C)sc2n1 | inactive: -6% | – |
| CCc1cccc(NS(=O)(=O)c2c(C)nc3sc(CC)nn3c2=O)c1 | inactive: -9.74% | – |
| COc1ccc(N2CC(NC(=O)c3cc4ccccc4o3)CC2=O)cc1OC (configuration not stated) | inactive: -0.645% | – |
| Cc1ccc(NC(=O)Cn2c(=O)n(CCc3ccccc3)c(=O)c3c4c(sc32)CCCC4)c(C)c1 | inactive: -16.2% | – |
| CN(C(=O)C1=CC(c2ccc3c(c2)OCO3)=NS(=O)(=O)N1C)c1ccccc1 | inactive: -16.5% | – |
| Cn1nnc2c(NCc3ccccc3Cl)ncnc21 | inactive: -7.17% | – |
| Cc1nc2c(c(C)nn2-c2ccccc2)c(C)c1CCC(=O)NCCc1ccccc1 | inactive: -4.09% | – |
| CCCC(=O)Nc1nnc2n1CCS2 | inactive: -18.3% | – |
| O=C(CSc1nc2c(c(=O)[nH]1)CN(Cc1ccc3c(c1)OCO3)CC2)Nc1cccc(Cl)c1 | inactive: -12.9% | – |
| COc1ccc(CC(=O)NCc2nc3cccnc3n2Cc2ccc(C)cc2)cc1OC | inactive: -12.1% | – |
| Cc1cccc(Cn2cc3c(=O)n(CC(=O)Nc4ccc(C)c(F)c4)nc-3c3cc(F)ccc32)c1 | inactive: -9.52% | – |
| CCOc1ccc(Oc2nc(NC)nc(N3CCOCC3)n2)nn1 | inactive: -1.93% | – |
| CCOC(=O)c1noc2ncnc(N3CCC(C)CC3)c12 | inactive: -12.6% | – |
| Cc1cccc(-c2nnn3c2nc(NCCc2ccc(S(N)(=O)=O)cc2)c2cc(Cl)ccc23)c1 | inactive: -16.1% | – |
| CS(=O)(=O)N(CC(=O)NCCc1ccccc1)c1cc(C(F)(F)F)ccc1Cl | inactive: -13.9% | – |
| CSc1ccc(-c2nc3ccc(C)cn3c2Nc2ccccc2C)cc1 | inactive: -8.46% | – |
| COc1ccc(-c2cc(C)nc3c(-c4ccc(OC)c(OC)c4)c(C)nn23)cc1 | inactive: -12.7% | – |
| COc1ccc(N2CCN(C(=O)c3cc4ccc5cccnc5c4[nH]3)CC2)cc1 | inactive: -13.1% | – |
| O=C(NCC12CC3CC(CC(C3)C1)C2)c1cc2nc(-c3ccccc3)cc(C(F)(F)F)n2n1 | inactive: -15.8% | – |
| CCCCCn1c(=O)[nH]c2cc(C(=O)N3CCN(c4cccc(C)c4)C(C)C3)ccc2c1=O (configuration not stated) | inactive: -0.986% | – |
| Cc1cccc(Oc2nc3c(c(=O)n(C)c(=O)n3C)n2C)c1 | inactive: -10.9% | – |
| COc1ccc(OC)c(CCNc2ncnc3onc(-c4ccc(F)cc4)c23)c1 | inactive: 9.92% | – |
| O=C1CCCc2cc(S(=O)(=O)NCC3CCC(C(=O)Nc4ccccc4F)CC3)ccc2N1 (configuration not stated) | inactive: -0.567% | – |
| CNC(=O)c1cc(Nc2nnc(-c3ccc(O)cc3)c3ccccc23)ccc1OC | inactive: -0.895% | – |

| SMILES | activation | Potency |
| --- | --- | --- |
| Fc1cc(Br)ccc1Nc1c2c(nc3nc(-c4cccs4)nn13)CCCC2 | inactive: -23% | – |
| CC(NC(=O)c1ccccc1NC(=O)c1nsc2ccccc12)c1ccccc1 (configuration not stated) | inactive: -17.2% | – |
| CC(=O)c1ccc(NC(=O)C2=CC(c3ccc4c(c3)OCO4)=NS(=O)(=O)N2C)cc1 | inactive: -9.81% | – |
| CCCCOc1ccc(C(=O)N2CCN(CCc3ccccn3)CC2)cc1 | – | active: 8.91 µM |
| COC(=O)c1ccc(OC)c(Cn2c(=O)n(Cc3ccccc3)c(=O)c3c2c2cc(OC)ccc2n3C)c1 | inactive: -4.31% | – |
| CCOC(=O)c1cccc(NC(=O)Cn2ncc3c4ccccc4n(Cc4ccccc4)c3c2=O)c1 | inactive: -1.26% | – |
| Cc1ccc(CNC(=O)CCCCCn2c(=O)c3sccc3n(CC(=O)N(C)c3ccccc3)c2=O)cc1 | inactive: -7.32% | – |
| Cc1ccc(C(=O)Nc2ccc3oc(-c4ccc(C(C)(C)C)cc4)nc3c2)cc1 | inactive: 11.1% | – |
| COc1ccc(-c2ccc(=O)n(CC(=O)Nc3ccc(C)cc3C)n2)cc1 | inactive: -3.74% | – |
| O=c1n(Cc2cccc(C(F)(F)F)c2)c2ccccc2c2nc(-c3ccccc3)nn12 | inactive: -5.34% | – |
| Cc1ccc(-c2ccc(CCC(=O)O)n2-c2cccc(O)c2)cc1 | inactive: -16.4% | – |
| COc1ccc(-c2noc(CCC(=O)NCc3ccc(C)cc3)n2)cc1 | inactive: -6.86% | – |
| C#CCOc1ccc(-c2nnc(Nc3cccc(C)c3)c3ccccc23)cc1 | inactive: -3.96% | – |
| Cc1cccc(Cn2c(=O)n(CCc3ccccc3)c(=O)c3c(C)c(C)sc32)c1 | inactive: -6.75% | – |
| Cc1ccc(NC(=O)c2cc(C)nc3c2c(C)nn3-c2cccc(Cl)c2C)c(C)c1 | inactive: -1.08% | – |
| Cc1ccc(NS(=O)(=O)c2ccc3[nH]c(=O)ccc3c2)cc1N(C)C | inactive: -24.8% | – |
| CSc1nn(Cc2ccc(Cl)cc2)c(N(C(C)=O)C(C)=O)c1S(=O)(=O)c1ccccc1 | inactive: -3.88% | – |
| CCc1ccc2oc(C(=O)Nc3cccc(C(F)(F)F)c3)cc(=O)c2c1 | inactive: -13.9% | – |
| COc1ccccc1CN1COc2ccc3c(oc(=O)c4ccccc43)c2C1 | inactive: -17% | – |
| CCn1cc(C(=O)NCc2ccccc2OC)c(=O)c2cc(S(=O)(=O)N3CCCCC3)ccc21 | inactive: 5.13% | – |
| CCOC(=O)C1CCC(CN(Cc2ccc(Cl)cc2)S(=O)(=O)c2ccc(F)c(C(=O)Nc3cccc(F)c3)c2)CC1 (configuration not stated) | inactive: -17.5% | – |
| CCOC(=O)c1cnc(NCc2ccccc2OC)c2ccccc12 | inactive: -26% | – |
| COc1cccc2sc(=NC(=O)c3ccc(S(=O)(=O)N4CCCCC4)cc3)n(C)c12 | inactive: 12.8% | – |
| COc1ccc(S(=O)(=O)N2CCCCC2)cc1C(=O)Nc1cccc(C(F)(F)F)c1 | inactive: -9.78% | – |
| COc1ccc(/C=C/C(=O)Nc2sc3c(c2C(N)=O)CCCC3)cc1 | inactive: -1.83% | – |

| SMILES | activation | Potency |
| --- | --- | --- |
| COc1ccccc1Nc1cc(C(=O)NC2CCCC2)c2ccccc2n1 | inactive: -4.98% | – |
| CCn1c(=O)cc(SCC(=O)NCCc2ccc(Cl)cc2)c2ccccc21 | inactive: -15.8% | – |
| Cc1oc2ncn(CC(C)C)c(=O)c2c1C(=O)Nc1cc(F)ccc1F | inactive: -11.6% | – |
| CC(C)(C)C(=O)NCCc1nc2ccccc2n1CCCCOc1ccc(Cl)cc1 | inactive: -16.5% | – |
| Cc1ccc(Cn2c(C(=O)O)c(CNC3CCCCCC3)c3ccc(C)cc32)cc1 | inactive: 4.28% | – |
| COc1ccc(Cn2c(C(=O)O)c(CNCCc3cccs3)c3ccc(C)cc32)cc1 | inactive: -8.16% | – |
| COc1ccccc1CNC(=O)c1ccc2c(c1)N(Cc1cccc(Cl)c1)C(=O)c1ccccc1S2(=O)=O | inactive: -9.39% | – |
| Cc1ccc(NC(=O)Cn2c(=O)n(CCC(=O)N3CCc4ccccc4C3)c(=O)c3ccccc32)cc1 | inactive: -11% | – |
| CC(=O)c1ccc(NC(=O)Cn2c(=O)c3cccn3c3ccccc32)cc1 | inactive: -4.8% | – |
| O=C(NN1CCCC1)NS(=O)(=O)c1ccc(Cl)cc1 | inactive: -14% | – |
| COc1ccc(-n2nc3c(N4CCCC(C(=O)NCc5cccc(F)c5)C4)nnc(C)c3c2C)cc1 (configuration not stated) | inactive: -3.85% | – |
| O=C(Oc1ccc(F)cc1)c1nc(SCc2ccccc2F)ncc1Cl | inactive: -9.04% | – |
| Cc1oc2ncn(C)c(=O)c2c1C(=O)N1CCN(c2ccccc2)CC1 | inactive: -12.9% | – |
| COc1ccccc1C(=O)NC1(C(F)(F)F)C(=O)Nc2c1c(=O)[nH]c(=O)n2-c1ccccc1 (configuration not stated) | inactive: -11.9% | – |
| Cc1ccc(C)c(OCCn2cc(C(=O)c3ccco3)c3ccccc32)c1 | inactive: -21.9% | – |
| CCn1c(CNC(=O)C23CC4CC(CC(C4)C2)C3)nnc1SCC(=O)Nc1ccccc1 | inactive: -18.1% | – |
| COc1cccc(CNC(=O)c2cc3c(s2)-c2c(C)cccc2OC3)c1 | inactive: -19.2% | – |
| COc1ccc(-c2nc(CNS(=O)(=O)c3ccccc3)cs2)cc1 | inactive: -5.46% | – |
| Cc1ccc2nc(N3CCN(C(=O)C4CC4)CC3)sc2c1 | inactive: -14.3% | – |
| CC1CCCN(CCCNC(=O)c2cn(C)c3ccc(S(=O)(=O)N(C)C4CCCCC4)cc3c2=O)C1 (configuration not stated) | inactive: -17.9% | – |
| Cc1ccc(NS(=O)(=O)c2ccc3nc(-c4ccccc4)[nH]c3c2)c(Cl)c1 | inactive: -14.6% | – |
| Cc1ccc2c(c1)-c1nc(-c3ccc4c(c3)NC(=O)CO4)cc(-c3ccc(Cl)cc3)c1CO2 | inactive: -10.8% | – |
| Cn1c(=O)c2c([nH]c(=O)n2Cc2ccc(Cl)cc2Cl)n(C)c1=O | inactive: -12.1% | – |
| Cc1ccc(NC(=O)Cn2cc3c(n2)CCCCC3)cc1 | inactive: -6.03% | – |
| CCOC(=O)c1ccccc1NC(=O)c1cc2c(=O)oc3ccc(C)cc3c2s1 | inactive: -39.5% | – |

| SMILES | activation | Potency |
| --- | --- | --- |
| CC1=C(C(=O)N2CCN(c3cccc(C(F)(F)F)c3)CC2)C2(CCCCC2)OC1=O | inactive: -18.7% | – |
| CCN(c1ccccc1)c1ncnc2c1cnn2-c1ccc(C)cc1C | inactive: -7.39% | – |
| COc1ccccc1CNC(=O)CN1C(=O)CSc2ccc(S(=O)(=O)N3CCCCC3)cc21 | inactive: -10.9% | – |
| COC(=O)c1c(Oc2ccc(C(C)=O)cc2)nnc(-c2ccccc2)c1-c1ccccc1 | inactive: -35.4% | – |
| Cc1cccc(N2CCN(C(=O)c3c(C)oc4ncnc(N5CCCCC5)c34)CC2)c1C | inactive: -15.6% | – |
| Cc1ccc(C)c(Nc2nc3c(S(=O)(=O)c4ccc(C(C)C)cc4)nnn3c3ccsc23)c1 | inactive: -4.15% | – |
| CCc1ccc(C2CC(=O)Nc3cc4c(cc32)OCO4)cc1 (configuration not stated) | inactive: -44.5% | – |
| CCOC(=O)c1noc2nc(C)n(CC(=O)Nc3ccccc3F)c(=O)c12 | inactive: -32.9% | – |
| Cc1ccc(S(=O)(=O)Nc2cccc(-c3cn4cccc(C)c4n3)c2)cc1 | inactive: -22.4% | – |
| O=C(Nc1ccc(Cl)cc1Cl)c1cc(S(=O)(=O)N2CCc3ccccc32)ccc1F | inactive: -3.01% | – |
| COc1ccc(OC)c2sc(N3CCN(C(=O)C4CC4)CC3)nc12 | inactive: 6.73% | – |
| CN1CCN(C2=Nc3ccccc3Oc3ccc(Cl)cc32)CC1 | inactive: -8% | – |
| CC(C)CN(CCCNC(=O)CN1C(=O)CSc2ccc(S(=O)(=O)N3CCOCC3)cc21)CC(C)C | inactive: -14.1% | – |
| Cc1ccccc1CCNC(=O)c1ccc2c(c1)c(C)c(C)n2Cc1ccccc1 | inactive: -29.3% | – |
| CCOc1ccc(CNC(=O)CSc2nnc(C)c3c(C)n(-c4ccccc4)nc23)cc1 | inactive: -17.6% | – |
| CCc1ccccc1N1C(=O)N(Cc2ccccc2C)c2ccccc2S1(=O)=O | inactive: -8.77% | – |
| COc1ccc(S(=O)(=O)n2ccnc2)cc1C(C)(C)C | inactive: 1.08% | – |
| COc1ccccc1NC(=O)c1cnc(SCC(=O)N2CCCc3ccccc32)n(C)c1=O | inactive: -20.2% | – |
| COc1ccc(OC)c(-n2cnc3cc(C(=O)NC4CCCCCC4)ccc32)c1 | inactive: -7.75% | – |
| CCOc1ccc(NC(=O)CC2C(=O)OCCN2CC)cc1 (configuration not stated) | inactive: -3.94% | – |
| COc1ccc(-c2nc(Cn3c(SCc4cccc(Cl)c4)nc4ccncc43)c(C)o2)cc1 | inactive: -10% | – |
| CC1=C(c2ccc(F)cc2)S(=O)(=O)N=C1N1CCC(C(=O)NCCc2ccco2)CC1 | inactive: -2.99% | – |
